Several values for one entry are separate records, joined by “and”; a condition that tells them apart may be missing. Identical values can stand only once. Hit rate of the full screen: of about 420,000 compounds, about 50,000 (12%) were called active. This list was built around the results that the source calls inconclusive (neither active nor inactive); the mix of calls is not that of the screen. Calls come from the whole dose curve; as a rule, active = well fitted inhibition curve with a large enough effect; inconclusive = small, poorly fitted or top-dose-only effect; inactive = flat fitted curve, though single readings scatter. Potencies beside an inconclusive call are fits to weak or partial responses and may not hold up. Where a SMILES comes first, the peptide text is derived from it. [ ]: non-standard residue; d: D form. The star is where a group is joined. ξ: configuration not given here. ξF = NC(Cc1ccccc1)C(=O)O; Cbz = O=C(OCc1ccccc1)*
Assay: qHTS for Inhibitors of human tyrosyl-DNA phosphodiesterase 1 (TDP1): qHTS in cells in presence of CPT; note: nearly all actives have a fitted effect of over 55% in size
Settings: chicken DT40 Tdp1-/-;hTDP1 cells + 20 nM CPT, ATP luminescence, 48 h; activity change, negative = growth inhibition: at 46.2 µM (top of the series)
Method in brief: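 Chicken DT40 Tdp1-/- cells complemented with human TDP1, 400 cells/well, exposed to compounds plus 20 nM camptothecin for at least 48 h at 37 C; viability read as ATP content by CellTiter-Glo luminescence.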
% is set by controls: 0 for no effect and ±100 for the full control effect; potency is the fitted concentration of half-maximal effect; tags give direction and shape of the fitted curve.

Structure (SMILES)	Potency	activity change, negative = growth inhibition
O=C(Nc1cccc(-c2nc3cccnc3s2)c1)C1c2ccccc2Oc2ccccc21	inconclusive: 23.1 µM [inhibitor, single point]	–
CC(=O)c1ccc2c(c1)OCCOCCOCCOCCO2	–	inactive: 3.02%
Cc1cccc(/C=N/NC(=O)c2ccc(Br)cc2)c1	–	inactive: 6.97%
Cc1nn2c(N3CCN(C)CC3)cc(C(C)(C)C)nc2c1-c1ccccc1	inconclusive: 29.1 µM [inhibitor, single point]	–
COc1ccc(C)cc1NC(=O)C1CCCN(S(=O)(=O)c2ccc3c(c2)CCCN3C(C)=O)C1 (stereo unspecified)	inconclusive: 18.4 µM [inhibitor, single point]	–
Cc1ccc(SC(=O)c2c(C)noc2-c2cc(C)on2)cc1	active: 18.4 µM	–
CO[C@H]1C[C@@H]2CC[C@@H](C)[C@@](O)(O2)C(=O)C(=O)N2CCCC[C@H]2C(=O)O[C@H]([C@H](C)C[C@@H]2CC[C@@H](O)[C@H](OC)C2)CC(=O)[C@H](C)/C=C(\C)[C@@H](O)[C@@H](OC)C(=O)[C@H](C)C[C@H](C)/C=C/C=C/C=C/1C	active: 4.47 µM	–
CCC(C)NS(=O)(=O)c1ccc(N2CCCCS2(=O)=O)cc1 (stereo unspecified)	inconclusive: 16.4 µM [inhibitor, single point]	–
CC12CC3CC(C)(C1)CC(C(=O)NCc1cccnc1)(C3)C2	–	inactive: -33.4%
CS(=O)(=O)N1N=C(c2ccc(Br)cc2)CC1c1cccs1 (stereo unspecified)	active: 20.6 µM	–
Fc1cccc(NCc2ccccc2-c2nnc(-c3ccccc3Cl)o2)c1	inconclusive: 18.4 µM [inhibitor, single point]	–
CCC(C)N(C(=O)CSc1nc(-c2cccs2)nc2ccccc12)C1CCS(=O)(=O)C1 (stereo unspecified)	inconclusive: 29.1 µM [inhibitor, single point]	–
O=c1c2oc3ccccc3c2n(Cc2ccc(Cl)cc2)c(=O)n1Cc1ccc2c(c1)OCO2	–	inactive: -20.4%
CCOC(=O)CNC(=O)C(Cc1ccccc1)NC(=O)OCc1ccccc1 (stereo unspecified) (Cbz-[ξF]-Gly-OEt)	inconclusive: 18.4 µM [inhibitor, single point]	–
CCOC(=O)c1cc2sccc2n1CCCN1C(=O)c2ccccc2C1=O	inconclusive: 20.6 µM [inhibitor, partial curve, poor fit]	–
CCOC(=O)[C@H]1[C@H]2COc3cc(OC)ccc3[C@@H]2N2C(=O)CN(Cc3ccc(Cl)cc3)C(=O)[C@@]12C	inconclusive: 25.9 µM [inhibitor, single point]	–
COc1cc(OC)cc(C(=O)NC(C(=O)N2CCc3ccccc3C2)C(C)C)c1 (stereo unspecified)	active: 20.6 µM	–
NC(=O)C1CCN(c2ncnc3c2cnn3-c2ccccc2)CC1	–	inactive: -18%
COC(=O)c1cc(C(=O)Nc2nc3ccccc3[nH]2)cc([N+](=O)[O-])c1	–	inactive: -23.9%
CC(=O)Nc1sc2c(c1C#N)CCCCC2	–	inactive: -5.04%
Cc1ccc(C(=O)C[n+]2ccc(Cc3ccccc3)cc2)cc1	active: 5.8 µM	–
O=C(CN1CCCCC1)Nc1ccc(NC(=O)c2ccc(Cl)cc2)cc1Cl	active: 13 µM	–
Cc1cccc(OCC(=O)Nc2ccc(N3CCN(C(=O)c4ccccc4)CC3)cc2)c1C	inconclusive: 7.31 µM [inhibitor, partial curve]	–
O=C(c1cc2nc(-c3ccco3)cc(C(F)(F)F)n2n1)N1CCc2ccccc2C1	inconclusive: 29.1 µM [inhibitor, single point]	–

Structure (SMILES)	Potency	activity change, negative = growth inhibition
COCCCn1c(=NC(=O)c2ccncc2)c(C#N)cc2c(=O)n3cccc(C)c3nc21	inconclusive: 29.1 µM [inhibitor, single point]	–
CCCCOc1ncnc2c1[nH]c1ccc(F)cc12	active: 9.2 µM	–
Cc1ccc2[nH]c(=O)c(CN(Cc3cccs3)C(=S)NCc3ccco3)cc2c1	inconclusive: 18.4 µM [inhibitor, single point]	–
O=C(CCCC(=O)c1ccccc1)NCCc1ccccc1	–	inactive: 3.93%
CCCn1c(=O)c2ccccc2n2c(Sc3nnnn3-c3ccccc3)nnc12	inconclusive: 16.4 µM [inhibitor, single point]	–
NC(=O)c1ccsc1NC(=O)c1ccc(S(=O)(=O)N2CCCC2)cc1	inconclusive: 18.4 µM [inhibitor, single point]	–
CCCCC1S/C(=N/N=C/c2cccs2)NC1=O (stereo unspecified)	–	inactive: -15.9%
CC(C)(C)C(=O)c1c(N)[nH]c(C(=O)c2ccccc2)c1-c1ccc(Cl)cc1Cl	inconclusive: 18.4 µM [inhibitor, single point]	–
CC(C)CC1Nc2ncnc(N3CCN(c4ccccn4)CC3)c2N(Cc2ccc(Br)cc2)C1=O (stereo unspecified)	inconclusive: 25.9 µM [inhibitor, single point] and inconclusive: 16.4 µM [inhibitor, single point]	–
CCCCCC(=O)N1C[C@@H](n2cc(-c3ccc(F)cc3)nn2)[C@H](O)C[C@@H]1c1ccc(C)cc1	active: 13 µM	–
Cc1cc(N2CCOCC2)nc2ccc(NC(=O)C3CCCCC3)cc12	active: 12.6 µM	–
Cc1ccc(Cl)cc1N1CCN(C2(c3ccccc3)C(=O)c3ccccc3C2=O)CC1	inconclusive: 23.1 µM [inhibitor, single point]	–
COc1cccc(NC(=O)Cn2c(=O)n(-c3cccc(OC)c3)c(=O)c3sc4ccccc4c32)c1	inconclusive: 4.11 µM [inhibitor, full curve, poor fit]	–
CCc1cccc(CC)c1NC(=S)NCc1ccc2[nH]c(C)cc2c1	active: 23.1 µM	–
CC(O)CNc1nc2c(c(=O)n(Cc3ccc(Cl)c(Cl)c3)c(=O)n2C)n1C (stereo unspecified)	inconclusive: 13 µM [inhibitor, partial curve]	–
CCCNC(=S)NCCN1CCCCC1	–	inactive: -6.16%
CCC(C)(C)NC(=O)C1CCC(CNS(=O)(=O)c2ccc3c(c2)CC(C)N3C(C)=O)CC1 (stereo unspecified)	active: 16.4 µM	–
O=C(c1[nH]c(C(F)(F)F)nc1-c1ccccc1)N1CCN(C(=O)C2CCCO2)CC1 (stereo unspecified)	–	inactive: -3.9%
CCN(CC)CCn1c(=O)c(Cc2ccc(OC)cc2)nc2ccccc21	inconclusive: 26.6 µM [inhibitor, single point]	–
COc1ccc(-c2oc3ncn(Cc4ccco4)c(=N)c3c2-c2ccc(OC)cc2)cc1	inconclusive: 29.1 µM [inhibitor, single point]	–
COc1ccc(C)cc1NC(=O)CSc1nnc(-c2cc(C)[nH]n2)n1N	–	inactive: 6.79%
CC(C)Oc1snc(Cl)c1C(N)=O	–	inactive: -2.1%
Cc1ccc(CNC(=O)CS(=O)(=O)Cc2nc(-c3ccc(C)cc3)oc2C)cc1	–	inactive: -5.37%
COc1ccccc1N1CCN(C(=O)c2cc(-c3cccs3)on2)CC1	inconclusive: 25.9 µM [inhibitor, single point]	–

Structure (SMILES)	Potency	activity change, negative = growth inhibition
CCN1CCN(C(=O)C2CCN(S(=O)(=O)c3ccc4c(c3)NC(=O)C(C)S4)CC2)CC1 (stereo unspecified)	–	inactive: -12.5%
O=C(/C=C/c1ccc(Cl)cc1Cl)Nc1ccncc1	inconclusive: 20.6 µM [inhibitor, single point]	–
O=C(Nc1ccc(Cl)c(Cl)c1)C1CCCCC1	inconclusive: 23.1 µM [inhibitor, single point]	–
Cn1cnc2c1c(=O)n(Cc1cccc(Br)c1)c(=O)n2C	inconclusive: 25.9 µM [inhibitor, single point]	–
O=C(Nc1ccccc1Oc1ccccc1)c1cccs1	–	inactive: 4.94%
COc1ccc2c(CNCc3ccco3)c(C(=O)O)n(Cc3ccc(F)cc3Cl)c2c1	inconclusive: 6.51 µM [inhibitor, full curve]	–
O=C(Cn1c(SCCOc2ccccc2Cl)nc2ccccc21)N1CCOCC1	–	inconclusive: -30.3% [inhibitor]
Fc1ccccc1N1CCN(c2nnc(C(F)(F)F)c3nnn(Cc4ccccc4)c23)CC1	inconclusive: 5.17 µM [inhibitor, partial curve]	–
CN(c1cccc(Cl)c1)S(=O)(=O)c1cccc(C(=O)Nc2ccc3c(c2)CCC3)c1	active: 23.1 µM	–
Cc1ccc(N2C(=O)/C(=C/c3cccnc3)SC2=S)cc1	–	inactive: 0.954%
NC(=S)NN=C1c2cc(S(=O)(=O)N3CCOCC3)ccc2-c2ccc(S(=O)(=O)N3CCOCC3)cc21	–	inactive: -0.743%
Cc1cccnc1NC(=O)c1ccc2c(c1)OCCO2	–	inactive: 0.752%
Cc1sc(NC(=O)CN2CCCC2)nc1-c1ccc2c(c1)CCN2C(=O)c1ccc(F)cc1	inconclusive: 29.1 µM [inhibitor, single point]	–
O=C(Nc1cc(SCCO)cc([N+](=O)[O-])c1)c1ccc(Br)o1	inconclusive: 20.6 µM [inhibitor, single point]	–
CCc1ccc(NC(=O)CSc2nc(-c3ccccc3)no2)cc1	inconclusive: 18.4 µM [inhibitor, single point]	–
COc1ccc(CCNc2ncnc3c2nnn3C)cc1OC	inconclusive: 29.1 µM [inhibitor, single point]	–
Cc1ccc(S(=O)(=O)NC(=O)NC2=NC(C)(C)N(c3ccc(Cl)c(Cl)c3)C(N)=N2)cc1	active: 0.92 µM	–
COc1ccc(-c2oc3ccc(-c4cc(OC)c(OC)c(OC)c4)cc3c2-c2ccc(OC)nc2)cc1	active: 14.6 µM	–
Oc1ccc(C=NNC(=S)Nc2cccnc2)nc1	active: 16.4 µM	–
Nc1nc(-c2ccccn2)nc(N)c1Cc1ccccc1F	active: 5.8 µM	–
O=C(NCCCN1CCC(Cc2ccccc2)CC1)c1ccc(CS(=O)c2ccccc2Cl)o1 (stereo unspecified)	active: 23.1 µM	–
Cc1cc(C)nc(SCC(=O)NN=C2CCCC2)n1	inconclusive: 20.6 µM [inhibitor, single point]	–
c1cc(-c2ccc3[nH]ccc3c2)n2ccnc2c1	inconclusive: 32.6 µM [inhibitor, single point]	–
